Test results taken from the BET-seq Pho4 binding data (Le et al. 2018).
The other results are listed elsewhere or left out. These are noisy estimates, calculated here from bound and input reads.

Target: T1, Pho4 (S. cerevisiae) (UniProt P07270)
T1 sequence: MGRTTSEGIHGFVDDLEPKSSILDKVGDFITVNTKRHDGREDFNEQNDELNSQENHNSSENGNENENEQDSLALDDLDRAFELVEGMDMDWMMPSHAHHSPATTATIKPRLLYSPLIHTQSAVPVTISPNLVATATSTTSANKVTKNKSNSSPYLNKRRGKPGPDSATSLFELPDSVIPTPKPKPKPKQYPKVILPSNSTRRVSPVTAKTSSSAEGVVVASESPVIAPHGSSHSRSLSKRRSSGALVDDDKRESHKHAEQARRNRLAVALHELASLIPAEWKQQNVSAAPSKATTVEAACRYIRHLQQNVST
Experiment: relative binding free energy (BET-seq); higher = weaker binding
Conditions: reference: library average

Sequence | relative binding free energy
ATGGGCACGTGGACTT | -0.06 kcal/mol
TTGGGCACGTGTGGAG | 0.01 kcal/mol
CGGGGCACGTGGAGGA | -0.1 kcal/mol
TATGCCACGTGGGTTG | -0.28 kcal/mol
GCTTGCACGTGTGTCG | 0.11 kcal/mol
GAGTTCACGTGGTTCA | 0.3 kcal/mol
GGGCTCACGTGCTGTT | 0.2 kcal/mol
TATGGCACGTGCGATG | -0.25 kcal/mol
TGGAGCACGTGAGGCA | 0.11 kcal/mol
AGGTACACGTGGTTGC | -0.02 kcal/mol
TTAGTCACGTGGATAG | 0.16 kcal/mol
CAGGTCACGTGTGGTC | 0.06 kcal/mol
TGCGACACGTGGGATG | -0.01 kcal/mol
CTTTGCACGTGGTCGT | -0.13 kcal/mol
TGGAGCACGTGAGTTC | 0.14 kcal/mol
TCATTCACGTGTGTTG | 0.23 kcal/mol
TGTGTCACGTGGGCTT | -0.01 kcal/mol
TTAGTCACGTGATGAG | 0.31 kcal/mol
TACGTCACGTGTAAGG | 0.21 kcal/mol
ATTATCACGTGGTCAG | 0.06 kcal/mol
GATTTCACGTGGGGCA | 0.22 kcal/mol
GTAGGCACGTGACGTT | -0.1 kcal/mol
TGTTACACGTGCTGGC | 0.24 kcal/mol
TGTGCCACGTGAGATT | 0.1 kcal/mol
TTCAGCACGTGTTAGT | -0.1 kcal/mol
ATAGTCACGTGTGATG | 0.18 kcal/mol

Sequence | relative binding free energy
TTGGGCACGTGGGGCC | -0.31 kcal/mol
TAGCTCACGTGAGTTG | 0.23 kcal/mol
CGTGTCACGTGGGTAG | -0.02 kcal/mol
TATGGCACGTGTCTGC | -0.05 kcal/mol
GTAGGCACGTGAGGTC | 0.21 kcal/mol
GGTTGCACGTGTTCGC | -0.03 kcal/mol
GGAAACACGTGGTGGC | 0 kcal/mol
GGTGACACGTGTGATC | 0.13 kcal/mol
TGGAGCACGTGCGGGC | -0.21 kcal/mol
CTATGCACGTGGTGGG | -0.18 kcal/mol
GGCGTCACGTGACGGG | 0.23 kcal/mol
TCTAGCACGTGCGTGT | -0.1 kcal/mol
GGTTCCACGTGTAGTA | -0.02 kcal/mol
AGTTGCACGTGGCAAG | -0.17 kcal/mol
TAATACACGTGTTGGC | 0.18 kcal/mol
CAGGGCACGTGGCGTT | -0.29 kcal/mol
CAGTACACGTGGGGAT | 0 kcal/mol
GTATGCACGTGTGTGC | 0.06 kcal/mol
AAGATCACGTGAGATT | 0.44 kcal/mol
ATGTACACGTGTGACG | 0.2 kcal/mol
TGTTTCACGTGCAGGG | 0.26 kcal/mol
ATATGCACGTGTGTAA | -0.11 kcal/mol
TAGTTCACGTGATTGC | 0.24 kcal/mol
CGTTTCACGTGGTAAG | 0.21 kcal/mol
ATTCGCACGTGTGGAT | -0.08 kcal/mol
TACAGCACGTGGGGTA | -0.23 kcal/mol

Sequence | relative binding free energy
ACGTGCACGTGAGTGT | 0.12 kcal/mol
GATATCACGTGCGTGG | 0.06 kcal/mol
TGGGGCACGTGGCAAT | -0.18 kcal/mol
GCGGGCACGTGTTAGA | -0.1 kcal/mol
GTTCACACGTGGTTTG | 0.15 kcal/mol
GTCGGCACGTGCGTTT | -0.19 kcal/mol
CCGGGCACGTGAGGTG | 0.11 kcal/mol
TCTGGCACGTGGAGTA | -0.16 kcal/mol
ACGTTCACGTGGGGGG | 0.11 kcal/mol
AGAGTCACGTGGGGTA | -0.11 kcal/mol
ATTTTCACGTGCAAGT | 0.24 kcal/mol
AGGCACACGTGGAGGG | -0.03 kcal/mol
ATTCTCACGTGGGAAT | 0.23 kcal/mol
GGGGGCACGTGGTAGC | -0.16 kcal/mol
AGTATCACGTGATAGA | 0.25 kcal/mol
TAGGACACGTGGTTCT | -0.07 kcal/mol
TAGGTCACGTGTCTTA | 0.08 kcal/mol
GCATTCACGTGTATGT | 0.27 kcal/mol
GGTCGCACGTGGGAGC | -0.01 kcal/mol
CTAGTCACGTGGATAG | 0.19 kcal/mol
TTTAACACGTGCGGTG | -0.03 kcal/mol
AAGAACACGTGTATGT | 0.08 kcal/mol
TTTGACACGTGCAGAT | 0.06 kcal/mol
TTGTCCACGTGTAATG | 0.14 kcal/mol
AATTGCACGTGTAATG | 0 kcal/mol
GTTAGCACGTGATTGA | 0.13 kcal/mol

Sequence | relative binding free energy
TCATGCACGTGGGCGG | -0.05 kcal/mol
TTATACACGTGTTGAC | 0.13 kcal/mol
GCGTTCACGTGGCGTG | 0.29 kcal/mol
AAATGCACGTGGGCGG | -0.16 kcal/mol
TGAGGCACGTGGTTAT | -0.14 kcal/mol
GTATTCACGTGGACAG | 0.31 kcal/mol
TAGGTCACGTGTGGCT | 0.04 kcal/mol
AGTTTCACGTGAGCGG | 0.16 kcal/mol
AGTTACACGTGTGAGA | 0.29 kcal/mol
TTTATCACGTGATGCG | 0.16 kcal/mol
TTGGTCACGTGGTACC | 0.09 kcal/mol
TAGCTCACGTGGGTCT | 0.11 kcal/mol
GAGGGCACGTGTGTGG | 0.02 kcal/mol
TGTAACACGTGAATAG | 0.33 kcal/mol
TTCTACACGTGTTTAG | 0.22 kcal/mol
TTCGTCACGTGAGGAT | 0.17 kcal/mol
TGTCACACGTGGGCAG | -0.08 kcal/mol
GCCGTCACGTGTGGGA | 0.11 kcal/mol
AGTGGCACGTGACGTA | 0.09 kcal/mol
TGGCCCACGTGTGGGT | 0.01 kcal/mol
TGGGACACGTGCGGCT | -0.11 kcal/mol
ACTTTCACGTGGTTGT | 0.12 kcal/mol
TTTTGCACGTGTTGAG | 0.02 kcal/mol
GGAGTCACGTGATCGG | 0.2 kcal/mol
TCAGGCACGTGCGGGG | -0.15 kcal/mol
AATTTCACGTGAGCTA | 0.45 kcal/mol

Sequence | relative binding free energy
GTTTACACGTGCTGTA | 0.03 kcal/mol
GTCGGCACGTGGGAGG | -0.07 kcal/mol
ATTAGCACGTGTGGCA | -0.15 kcal/mol
GAGGGCACGTGGTTTC | -0.07 kcal/mol
GTGCACACGTGGTGAG | 0.1 kcal/mol
TTATTCACGTGTATGC | 0.29 kcal/mol
AAGGGCACGTGCAAGG | -0.32 kcal/mol
TAGTTCACGTGTGACG | 0.42 kcal/mol
GCTGGCACGTGTGCTT | 0.14 kcal/mol
AATCACACGTGGGTTG | 0.15 kcal/mol
TGAATCACGTGTATAA | 0.23 kcal/mol
ATTTTCACGTGTAGGC | 0.19 kcal/mol
TGGTACACGTGTATAG | 0.02 kcal/mol
TATGACACGTGGAGTA | -0.07 kcal/mol
CATTGCACGTGGCGGT | -0.16 kcal/mol
AGTTACACGTGTGGCC | 0.28 kcal/mol
TTTTACACGTGGAGAG | 0.24 kcal/mol
TAGTTCACGTGTGAGA | 0.41 kcal/mol
TCTTTCACGTGGGATA | 0.15 kcal/mol
GATGTCACGTGTGCGG | 0.21 kcal/mol
GTTGCCACGTGGATTG | 0 kcal/mol
GTGAGCACGTGTGTAT | 0.02 kcal/mol
GGTAACACGTGGGGGA | -0.02 kcal/mol
AGGTACACGTGTAGGG | 0.06 kcal/mol
TAATCCACGTGGGGGG | -0.14 kcal/mol
TTAGACACGTGTGATT | 0.2 kcal/mol

Sequence | relative binding free energy
GGGGCCACGTGATGCG | 0.11 kcal/mol
ATGCTCACGTGGGGGA | 0.03 kcal/mol
TTGGTCACGTGGGCGA | -0.03 kcal/mol
GTCACCACGTGTGTGG | 0.02 kcal/mol
TTTTACACGTGACTGA | 0.2 kcal/mol
GGTTTCACGTGCCTGG | 0.31 kcal/mol
GCATGCACGTGGTTAT | 0.12 kcal/mol
GATATCACGTGGTAAG | 0.08 kcal/mol
ATTGACACGTGATCTT | 0.15 kcal/mol
TTCTGCACGTGTGTGA | -0.03 kcal/mol
TCTGGCACGTGTTGAG | 0 kcal/mol
GCGTGCACGTGTTTGA | 0.13 kcal/mol
ATATGCACGTGGTCTG | -0.17 kcal/mol
TTGGCCACGTGTAGGC | -0.03 kcal/mol
TGCAGCACGTGGGAAG | -0.24 kcal/mol
GGCGTCACGTGGTAGT | 0.16 kcal/mol
GAGCTCACGTGCGGTG | 0.22 kcal/mol
GTCTGCACGTGTTATT | 0.07 kcal/mol
GGGTGCACGTGGTTGT | 0.04 kcal/mol
TCGGCCACGTGGGGAT | -0.19 kcal/mol
CTTGTCACGTGGGGGT | -0.13 kcal/mol
AACGTCACGTGATATG | 0.29 kcal/mol
CATCTCACGTGGGTGG | 0.13 kcal/mol
GTGGTCACGTGTGAGT | 0.19 kcal/mol
TTAAGCACGTGTGGGA | -0.01 kcal/mol
AGTATCACGTGCATGT | 0.17 kcal/mol

Sequence | relative binding free energy
CTAGGCACGTGATGTA | -0.02 kcal/mol
CGGGTCACGTGCGTGA | -0.08 kcal/mol
TCTGTCACGTGTGGTG | 0.08 kcal/mol
GCGTGCACGTGGTCGT | -0.23 kcal/mol
GTACGCACGTGGGTTG | -0.28 kcal/mol
GATCGCACGTGTTGGT | 0.08 kcal/mol
TAGGGCACGTGTGATT | -0.03 kcal/mol
GGTGGCACGTGGGTCT | -0.13 kcal/mol
GTAAACACGTGTATGA | 0.16 kcal/mol
TATTGCACGTGATGTT | 0.17 kcal/mol
GTTTGCACGTGCTCTG | 0.11 kcal/mol
TTGGACACGTGAGTTA | 0.26 kcal/mol
TTGTTCACGTGCTTTT | 0.34 kcal/mol
AGTATCACGTGGACTG | 0.24 kcal/mol
TGCGTCACGTGGTATA | 0.04 kcal/mol
CAATGCACGTGTTAGG | 0.04 kcal/mol
TCGGGCACGTGTCTGT | -0.15 kcal/mol
GTGTCCACGTGCGTGT | -0.04 kcal/mol
GACATCACGTGGTAGG | 0.2 kcal/mol
GCGGACACGTGTGTTG | 0.09 kcal/mol
TTCTTCACGTGTTGAG | 0.34 kcal/mol
AATCACACGTGTTTTT | 0.06 kcal/mol
GTCGGCACGTGGCAGA | 0 kcal/mol
AGTTTCACGTGGGTAA | 0.13 kcal/mol
TAGATCACGTGGTAGG | 0.05 kcal/mol
GGACTCACGTGTAGTA | 0.39 kcal/mol

Sequence | relative binding free energy
TGTTGCACGTGCGCGC | -0.09 kcal/mol
ATTGGCACGTGATTGA | -0.07 kcal/mol
TGTACCACGTGCTGGT | -0.05 kcal/mol
ACGTACACGTGTATGT | 0.06 kcal/mol
GGGTTCACGTGCTGCT | 0.17 kcal/mol
TTTCTCACGTGATAGT | 0.2 kcal/mol
GTTAACACGTGCATTT | 0.2 kcal/mol
TTCGGCACGTGGGGCA | -0.18 kcal/mol
ATGTGCACGTGATAGA | 0 kcal/mol
CTTTACACGTGGAATT | 0.3 kcal/mol
GCAAGCACGTGGAGGT | -0.08 kcal/mol
TCTGGCACGTGATAGT | -0.12 kcal/mol
TTTCTCACGTGACGTT | 0.32 kcal/mol
GGGGTCACGTGGTGGT | 0.16 kcal/mol
TGGGTCACGTGTTGGC | 0.3 kcal/mol
TATATCACGTGAGAGG | 0.42 kcal/mol
CTTGGCACGTGTGTAG | -0.13 kcal/mol
GAGGCCACGTGATTGT | 0.29 kcal/mol
TCTAACACGTGTTGGG | 0.01 kcal/mol
AGGCACACGTGTGTTT | 0.07 kcal/mol
TATCGCACGTGTGGGT | 0.04 kcal/mol
CATTACACGTGTCGTT | 0.27 kcal/mol
GTATACACGTGTGGAG | 0.14 kcal/mol
TTTGTCACGTGCGATA | 0.19 kcal/mol
TTAGGCACGTGTGGAT | 0.02 kcal/mol
GACGGCACGTGGACGG | 0.08 kcal/mol

Sequence | relative binding free energy
AGCCTCACGTGTATGG | 0.3 kcal/mol
AATGGCACGTGTGTCG | -0.18 kcal/mol
TAGTGCACGTGGGTGC | -0.15 kcal/mol
GGTCTCACGTGAGGAG | 0.31 kcal/mol
GTTAACACGTGTTGTT | 0.08 kcal/mol
TTTTTCACGTGGAATG | 0.2 kcal/mol
GAGTTCACGTGTGGGC | 0.49 kcal/mol
ATTTTCACGTGAAGCT | 0.53 kcal/mol
AGCGTCACGTGTGCGG | 0 kcal/mol
CATGACACGTGGTAGG | -0.04 kcal/mol
GCGGGCACGTGGCTTG | -0.25 kcal/mol
TTTTTCACGTGTCCGT | 0.15 kcal/mol
GGAGGCACGTGATCTG | -0.03 kcal/mol
TGGAACACGTGTGATG | 0.02 kcal/mol
GATAGCACGTGAAAGT | 0.37 kcal/mol
CTGAGCACGTGGGCTG | -0.27 kcal/mol
TATTGCACGTGCGGAG | -0.1 kcal/mol
GGGAGCACGTGGGACT | -0.09 kcal/mol
GGGTGCACGTGTTGTT | 0.03 kcal/mol
TTTTACACGTGAAAAG | 0.35 kcal/mol
CGGGTCACGTGTTGGA | 0.21 kcal/mol
TGGAGCACGTGTCAGT | -0.08 kcal/mol
